This note sets out measurements from the RNAGym collection of RNA variant scans (doi:10.1093/nar/gkz1192).

Read counts are not given, so values of variants with three or more changes are uncertain.

B1: CPEB3 Ribozyme (parent)
chain: UAACAGGGGGCCACAGCAGAAGCGUUCACGUCGCAGCCCCUGUCAGAUUCUGGUGAAUCUGCGAAUUCUGCUGUAUAUCUC

Variants of B1 are the subject of the data set. The data set can be described thus: self-cleavage, relative activity (ratio to wild type); higher = more cleavage; in vitro, sequencing. The method, boiled down:
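CPEB3 self-cleaving ribozyme mutant libraries were made by rounds of error-prone PCR, barcoded, and transcribed in vitro with T7 RNA polymerase for 5 hours at 37°C. Cleavage occurred during transcription and a 15 min DNase I step before EDTA stop. RNAs were reverse transcribed with template switching and Illumina-sequenced, with DNA sequencing mapping barcodes to variants. Relative activity is the variant's cleaved/total read fraction divided by wild type's (minimum 5 reads), averaged across three batches.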
Turning to A13G U25C U31C U58C, the self-cleavage is 0.
As for A13G U41A U54G U80A, the figure is 0.18; as for A13G C39A U49C, 0.26; as for A13G C14U A18U U31C U66G, 0.04.
As for A13G G30A U31C U58C U66C, the figure is 0.08; as for A13G C38G U74A, 0.06.
As for A13G C17A A18U A35U C40G U72C, the figure is 0.06; as for A13G U41C U43C, 0.43.
For A13G U41C U43A, the self-cleavage was 0.44.
As for A13G U25C A77G U78C, the self-cleavage stood at 0.1.
For A13G G55U U58C, the self-cleavage amounted to 0.12.
Regarding A13G U25C U26A A45G U51A, the self-cleavage turned out to be 0.12.
As for A13G C39A U43C U78C, the figure is 0.16.
For the variant A13G U26C A47G U51C A57G U60C, the self-cleavage stood at 0.32.
In the case of A13G U26C C34U it was 0.5; in that of A13G G24A U41C U51G A64G A65U, 0.08; in that of A13G G46U U48C U80C, 0.09.
In the case of A13G U25C U41A U43C U66G it was 0.21.
Turning to A13G C23G G30A C38U U69G U74C, the self-cleavage was determined as 0.16.
As for A13G A75G U78C, the figure is 0.63; as for A13G G24A U26C U69C U76C, 0.08; as for A13G G33A A45G U66C U80C, 0.09.
Consider A13G G30C A56G A57U, for which the self-cleavage is 0.07.
As for A13G C34A C40U U54C, the figure is 0.21; as for A13G U31A U58C U72C, 0.23.
Consider A13G U31A C62U A64G, for which the self-cleavage was 0.24.
In the case of A13G C68G A75G U78C it was 0.19; in that of A13G U41G U51C U66C, 0.08; in that of A13G U26C A35G U78C, 0.51.
As for A13G G33A U54C U72C U78A, the self-cleavage was determined as 0.15.
With A13G U26C U31G A45G U72C, the self-cleavage was 0.33.
As for A13G C79A U80C, the figure is 1.2; as for A13G G30U U60A A75U, 0.11; as for A13G C14U U80C, 1.08.
As for A13G C50A G52C A75U, the figure is 0.74.
Consider A13G U25C A35G U48A U66C, for which the self-cleavage came to 0.22.
Consider A13G U26C A45G C79A, for which the self-cleavage stood at 0.37.
As for A13G G24A U54C, the figure is 0.19; as for A13G U25C A47C U48C U60A U69C A77G, 0.
In the case of A13G G19A G24C G53A U78C it was 0.25; in that of A13G U41G U54A, 0.41.
A13G U26C U31C U80A: the self-cleavage is 0.09.
On to A13G C14U A20G U43C U76A, for which the self-cleavage came to 0.15.
As for A13G G36U A47G, the figure is 0.11; as for A13G U25C U26C A65G U67C, 0.08.
As for A13G A64U A77U, the figure is 0.27.
On to A13G U26C U54C U58A U72C, for which the self-cleavage was determined as 0.07.
Consider A13G U25A U67C A77G, for which the self-cleavage was determined as 0.11.
With A13G U26C U54C U74A, the self-cleavage stood at 0.7.
As for A13G C39U U67A, the figure is 0.17; as for A13G U31C A65U U66A, 0.15; as for A13G U25C G52U, 0.11.
A13G A64U U69C U72C U80A: the self-cleavage worked out at 0.18.
As for A13G U41A U76C, the figure is 0.07; as for A13G G53C U78A, 1.05.
In the case of A13G U26C C32A U48C G61U it was 0.18; in that of A13G G42A U54C U72A, 0.15; in that of A13G U31A U60A U72A U78A, 0.11.
In the case of A13G U41C G63U A65U it was 0.11; in that of A13G C14A A21G U48C A57G U67C, 0.05; in that of A13G U26C U31C, 0.25.
For the variant A13G C29U U41C U43C, the self-cleavage was found to be 0.1.
Take A13G G30C A35U U41C U54C C71A U78C: the self-cleavage came to 0.05.
On to A13G C44G A77G U78C, for which the self-cleavage turned out to be 0.21.
As for A13G A64G A77G, the figure is 0.58; as for A13G G24A A28C U43G U54C U66C, 0.07.
As for A13G G52A U72G U78C, the figure is 0.6.
In the case of A13G C38U U69C it was 0.13.
For A13G G24C A56G A77G, the self-cleavage worked out at 0.12.
On to A13G U25C A65G U69A, for which the self-cleavage was 0.06.
As to A13G C17U A35C C38U U43C, the self-cleavage was found to be 0.36.
As for A13G U26C G36U G52A, the figure is 0.14; as for A13G G16C A35G U58C U69C, 0.14.
Regarding A13G C23G U26C G36A, the self-cleavage came to 0.19.
As for A13G U25C A45C, the figure is 0.09.
Take A13G U25C U31A C39U U48C A64U A65G: the self-cleavage was found to be 0.06.
For the variant A13G U26C U49A U51A U69C, the self-cleavage turned out to be 0.29.
For A13G C23U U43A A45G U51G, the self-cleavage came to 0.09.
In the case of A13G U26C C38U A45C A57G U80C it was 0.06.
As to A13G U41C A65G U80C, the self-cleavage amounted to 0.19.
As for A13G G61C A77G, the figure is 0.22.
Regarding A13G C29G A35G U80G, the self-cleavage turned out to be 0.18.
In the case of A13G C34G U69C, the self-cleavage came to 0.16.
